# From the supplement of paper PMC10600219
# Structures can show the parent of a compound that is named as a salt. Over roughly 2,800 compounds, “cell viability relative to vehicle” has its median near 0.98; the lowest 2% begin near 0.45. Some of the results follow.
# Tested on: NCI-H2228 alectinib-DTP
# Test: cell viability relative to vehicle (fraction of vehicle); NCI-H2228 is an ALK-positive lung cancer line and DTP means drug-tolerant persister; higher = less growth inhibition
# Settings: 100 nM; treatment time 6 days
# How it was run: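 Values give cell viability as a fraction of vehicle-treated cells. Parental and drug-tolerant persister NCI-H2228 cells (persisters made with 1000 nM of a targeted drug for 13 days) were exposed in 384-well plates to the 3114-agent TargetMol anti-cancer compound library at 100 nM, with DMSO as vehicle. ATP was then read after 6 days by the CellTiter-Glo 3D Cell Viability Assay.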
row,SMILES,cell viability
1,O=C(O)c1ccnc2ccccc12 [4-Quinolinecarboxylic acid],0.956
2,Nc1nc(=O)c2c([nH]1)NCC(CNc1ccc(C(=O)N[C@@H](CCC(=O)O)C(=O)O)cc1)N2C=O (stereo not given in full) [Calcium folinate],1.1
3,CCN1/C(=C/C(C)=O)Sc2ccc(OC)cc21,0.958
4,Cc1cc(C)cc(NC(=O)Cc2ccc(OC(C)(C)C(=O)O)cc2)c1 [Efaproxiral Sodium],0.938
5,Cc1ccc(O)c([C@H](CCN(C(C)C)C(C)C)c2ccccc2)c1 [Tolterodine tartrate],1.15
6,Oc1c(Cl)cc(Cl)cc1Sc1cc(Cl)cc(Cl)c1O [Bithionol],0.871
7,C=CCc1ccccc1OCC(O)CNC(C)C (stereo not given) [Alprenolol],0.994
8,CC(=O)OC(C)C[N+](C)(C)C (stereo not given) [Methacholine Chloride],0.925
9,CCCCOc1ccc(CC(=O)NO)cc1 [Bufexamac],0.882
10,CCCC(C(=O)OCCN(CC)CC)(c1ccccc1)c1ccccc1 [Proadifen hydrochloride],0.801
11,C[C@@H]1CC[C@@]2(OC1)O[C@H]1C[C@H]3[C@@H]4CC=C5C[C@@H](O[C@@H]6O[C@H](CO)[C@@H](O)[C@H](O[C@@H]7O[C@H](CO)[C@@H](O)[C@H](O)[C@H]7O)[C@H]6O[C@@H]6O[C@@H](C)[C@H](O)[C@@H](O)[C@H]6O)CC[C@]5(C)[C@H]4CC[C@]3(C)[C@H]1[C@@H]2C [Gracillin],1.03
12,CO[C@H]1C(=O)[C@]2(C)[C@@H](OC)C[C@H]3OC[C@@]3(OC(C)=O)[C@H]2[C@H](OC(=O)c2ccccc2)[C@]2(O)C[C@H](OC(=O)[C@H](O)[C@@H](NC(=O)OC(C)(C)C)c3ccccc3)C(C)=C1C2(C)C [Cabazitaxel],0.472
13,O=S(=O)(O)CCSSCCS(=O)(=O)O [Dimesna],0.881
14,CC(C)=CCC/C(C)=C/COc1ccc2ccc(=O)oc2c1 [Auraptene],1.12
15,CC(C)(C)c1ccc(S(=O)(=O)NCc2ccc(C(=O)Nc3cccnc3)cc2)cc1,0.98
16,Cc1ccccc1C(=O)N1CCc2cc(-c3nc(NC(=O)Cc4ccc5c(c4)OCO5)sc3C)ccc21,1.15
17,NC(=O)NO [Hydroxyurea],0.96
18,Clc1ccccc1C(c1ccccc1)(c1ccccc1)n1ccnc1 [Clotrimazole],1.06
19,CO/N=C1\CN(c2nc3c(cc2F)c(=O)c(C(=O)O)cn3C2CC2)CC1CN (stereo not given) [Gemifloxacin mesylate],0.977
20,C[C@H](CCC(=O)NCC(=O)O)[C@H]1CC[C@H]2[C@@H]3[C@H](O)C[C@@H]4C[C@H](O)CC[C@]4(C)[C@H]3C[C@H](O)[C@]12C [Glycocholic acid],1.09
